The values that follow come from the antibiotic and cytotoxicity screens of Wong et al. (2023).

Molecules are shown by their SMILES. The list shows a part of the results.

The assay deals with HepG2. The assay can be described thus: cytotoxicity call (relative viability < 0.9). Conditions: 10 µM.
Take `COc1ccc(S(=O)(=O)N(C)C[C@@H]2Oc3ccc(NC(=O)Nc4c(C)noc4C)cc3CC(=O)N([C@H](C)CO)C[C@@H]2C)cc1`: the cytotoxicity call is “inactive”. Turning to `C[C@H](CO)N1C[C@H](C)[C@@H](CN(C)Cc2ccc(Oc3ccccc3)cc2)Oc2ccc(NC(=O)Nc3ccc(F)cc3)cc2CC1=O`, the cytotoxicity call is “active”.

In the case of `Cc1ccc(S(=O)(=O)Nc2ccc3c(c2)C(=O)N([C@H](C)CO)C[C@@H](C)[C@@H](CN(C)Cc2ccc(Cl)c(Cl)c2)O3)cc1`, the cytotoxicity call was “active”. The value for `COc1cccc(S(=O)(=O)N(C)C[C@@H]2Oc3ncc(C#Cc4cccc(F)c4)cc3C(=O)N([C@H](C)CO)C[C@@H]2C)c1` was “inactive”; that for `C[C@@H]1CN([C@H](C)CO)C(=O)c2cc(NS(=O)(=O)c3cccs3)ccc2O[C@@H](C)CCCCO[C@@H]1CN(C)Cc1ccc(C(=O)O)cc1` was “inactive”. Consider `COc1ccc(C(=O)CO)cc1`, for which the cytotoxicity call was “inactive”. The result for `Cc1ccccc1-c1ccc2c(c1)O[C@@H](CN(C)C(=O)Nc1ccc(C(F)(F)F)cc1)[C@H](C)CN([C@H](C)CO)S2(=O)=O` reads “inactive”; that for `CN(C)CCCNC(=O)C[C@@H]1CC[C@@H]2[C@H](COc3ccc(NC(=O)c4cccc(F)c4)cc3C(=O)N2C)O1`, “inactive”.

Take `Cl.NC(=O)CCC(N)C(=O)O` (stereo not given): the cytotoxicity call was “inactive”. The result for `C[C@H]1CN([C@@H](C)CO)C(=O)c2cccc(NS(=O)(=O)c3cccs3)c2O[C@@H]1CN(C)Cc1ccc(Oc2ccccc2)cc1` reads “inactive”. In the case of `Nc1ncnc2nc(N3CCCCC3)[nH]c12`, the cytotoxicity call is “inactive”.

Regarding `CCOC(=O)CCC(=O)OC1C(OC2C(C)C(OC3CC(C)(OC)C(O)C(C)O3)C(C)C(=O)OC(CC)C(C)(O)C(O)C(C)C(=O)C(C)CC2(C)O)OC(C)CC1N(C)C` (stereo not given), the cytotoxicity call was “inactive”. For `C[C@@H]1CN([C@H](C)CO)C(=O)c2cc(C#CC(C)(C)O)cnc2O[C@H]1CN(C)C(=O)CN(C)C`, the cytotoxicity call was “inactive”. The value for `Cc1noc(C)c1S(=O)(=O)Nc1ccc2c(c1)C(=O)N([C@@H](C)CO)C[C@@H](C)[C@H](CN(C)C)OCCCC[C@H](C)O2` was “inactive”; that for `COc1ccc(S(=O)(=O)N2C[C@H](O)COC[C@@H]3O[C@H](CC(=O)N[C@@H]4CCN(Cc5ccccc5)C4)CC[C@H]32)cc1` was “inactive”; that for `CCOC(=O)CCCCCC(=O)Nc1ccc2c(c1)C(=O)N([C@@H](C)CO)C[C@H](C)[C@H](CN(C)C(=O)Nc1ccc(F)cc1)OCCCC[C@H](C)O2` was “inactive”. The value for `COc1ccccc1C(=O)Nc1ccc2c(c1)C(=O)N(C)[C@@H]1CC[C@@H](CC(=O)NCc3ccc(Cl)c(Cl)c3)O[C@@H]1CO2` was “active”; that for `CN(C)C(=O)CN1CCC[C@]2(CCN(S(=O)(=O)c3cn(C)cn3)C2)C1` was “inactive”; that for `C[C@H](CO)N1C[C@H](C)[C@@H](CN(C)C(=O)Cc2ccncc2)Oc2ncc(C#Cc3ccccc3F)cc2C1=O` was “inactive”. Consider `COc1cccc(C(=O)Nc2ccc3c(c2)C(=O)N(C)[C@@H]2CC[C@H](CC(=O)NCC4CC4)O[C@@H]2CO3)c1`, for which the cytotoxicity call was “active”.

As to `COc1ccccc1S(=O)(=O)N[C@@H]1C=C[C@H](CC(=O)N2CCN(C)CC2)O[C@H]1CO`, the cytotoxicity call was “inactive”. The value for `C[C@@H]1CCCCO[C@H](CN(C)S(C)(=O)=O)[C@@H](C)CN([C@H](C)CO)C(=O)c2cc(N(C)C)ccc2O1` was “inactive”. The value for `C[C@H](CO)N1C[C@H](C)[C@@H](CN(C)CC2CCCCC2)Oc2c(NC(=O)c3cnccn3)cccc2C1=O` was “inactive”. In the case of `COc1ccc(S(=O)(=O)Nc2ccc3c(c2)CC(=O)N([C@@H](C)CO)C[C@H](C)[C@@H](CN(C)S(=O)(=O)c2cccs2)O3)cc1`, the cytotoxicity call was “inactive”. The value for `COCCCNC(=O)[C@@]1(Sc2ccc(C)cc2)CC(=O)N(C2Cc3ccccc3C2)[C@@H]1c1ccc(CO)cc1I` was “inactive”; that for `COc1ccc([Si](C)(C)[C@H]2[C@H](CCO)O[C@@]3(C(=O)N(Cc4ccccc4)c4ccc(N5C(=O)c6ccccc6Oc6ccccc65)cc43)[C@@H]2C)cc1` was “active”; that for `C[C@H]1CN([C@@H](C)CO)C(=O)c2cc(NC(=O)C3CCCCC3)ccc2O[C@@H]1CN(C)Cc1ccc(C(F)(F)F)cc1` was “inactive”. The result for `NC(=S)Nc1ccncc1` reads “inactive”.

Consider `CCS(=O)(=O)N1CC[C@]2(CC1)CN([C@@H](CO)c1c2c2ccc(cc2n1C)OC)C(=O)c1cccc(c1)F`, for which the cytotoxicity call was “inactive”. The value for `C[C@H]1CN([C@@H](C)CO)S(=O)(=O)c2ccc(Br)cc2O[C@@H]1CN(C)C(=O)CCN1CCCCC1` was “inactive”. The value for `Cc1ccc(S(=O)(=O)N(C)C[C@@H]2Oc3c(NC(=O)c4ccncc4)cccc3C(=O)N([C@@H](C)CO)C[C@H]2C)cc1` was “inactive”; that for `C=CCOC(=O)C1=C[C@@H](c2cn(C(C)=O)c3ccccc23)C[C@@H](OCc2ccc(COC(=O)NCCCCCC(=O)NO)cc2)O1` was “inactive”. The result for `COc1ccc(NC(=O)Nc2ccc3c(c2)[C@H]2C[C@H](CC(=O)N4CCN(C)CC4)O[C@@H](CO)[C@H]2O3)cc1` reads “inactive”. Consider `Cn1c(=O)c(F)c(Nc2ccc(I)cc2F)c2c(=O)n(C[C@@H](O)CO)cnc21`, for which the cytotoxicity call is “active”. The result for `C[C@H]1CN([C@@H](C)CO)C(=O)c2cc(NC(=O)Nc3cccc4ccccc34)ccc2O[C@@H]1CN(C)Cc1ccc2c(c1)OCO2` reads “inactive”; that for `O=C(CN1CCOCC1)N[C@@H]1CC[C@H](CCNC(=O)C2CCCCC2)O[C@@H]1CO`, “inactive”; that for `COc1ccc(NC(=O)Nc2ccc3c(c2)C(=O)N([C@H](C)CO)C[C@H](C)[C@@H](CN(C)S(=O)(=O)c2ccc(Cl)cc2)OCCCC[C@@H](C)O3)cc1`, “inactive”. `CCNC(=O)C=Cc1cccc(Br)c1`: the cytotoxicity call was “active”. The result for `C[C@@H]1CN([C@H](C)CO)C(=O)c2cc(NC(=O)Nc3ccc(C(F)(F)F)cc3)ccc2O[C@@H]1CN(C)Cc1ccncc1` reads “inactive”; that for `NC[C@@H]1CCCO1`, “inactive”.
